In the supplement of paper PMC3334620:
Whole data set: some 33,000 sequences, median “E-score (-0.5 to 0.5)” near -0.053, cut for the highest 2% near 0.37. This is one part of the list.

Each sequence was assayed against Hap1 (UniProt P0CE41) (assay: PBM E-score (8-mer binding enrichment) (E-score (-0.5 to 0.5)); higher = stronger / more preferred TF binding; most listed sequences are background and not binding sites). Conditions: protein concentration: 200 nM; construct: GST-DNA-binding domain.
How it was run: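 Universal all-10-mer Agilent arrays, double-stranded by primer extension on fresh or once-stripped slides, were probed with about 100-200 nM GST-tagged yeast transcription factors made by PURExpress. Fluorescent anti-GST detected bound protein, and masliner normalised the scans. E-scores from the Universal PBM Analysis Suite were given to each ungapped eight-base word pooled with its reverse complement.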

Sequence of UniProt P0CE41 (P0CE41 whole entry, the tested form may be a part): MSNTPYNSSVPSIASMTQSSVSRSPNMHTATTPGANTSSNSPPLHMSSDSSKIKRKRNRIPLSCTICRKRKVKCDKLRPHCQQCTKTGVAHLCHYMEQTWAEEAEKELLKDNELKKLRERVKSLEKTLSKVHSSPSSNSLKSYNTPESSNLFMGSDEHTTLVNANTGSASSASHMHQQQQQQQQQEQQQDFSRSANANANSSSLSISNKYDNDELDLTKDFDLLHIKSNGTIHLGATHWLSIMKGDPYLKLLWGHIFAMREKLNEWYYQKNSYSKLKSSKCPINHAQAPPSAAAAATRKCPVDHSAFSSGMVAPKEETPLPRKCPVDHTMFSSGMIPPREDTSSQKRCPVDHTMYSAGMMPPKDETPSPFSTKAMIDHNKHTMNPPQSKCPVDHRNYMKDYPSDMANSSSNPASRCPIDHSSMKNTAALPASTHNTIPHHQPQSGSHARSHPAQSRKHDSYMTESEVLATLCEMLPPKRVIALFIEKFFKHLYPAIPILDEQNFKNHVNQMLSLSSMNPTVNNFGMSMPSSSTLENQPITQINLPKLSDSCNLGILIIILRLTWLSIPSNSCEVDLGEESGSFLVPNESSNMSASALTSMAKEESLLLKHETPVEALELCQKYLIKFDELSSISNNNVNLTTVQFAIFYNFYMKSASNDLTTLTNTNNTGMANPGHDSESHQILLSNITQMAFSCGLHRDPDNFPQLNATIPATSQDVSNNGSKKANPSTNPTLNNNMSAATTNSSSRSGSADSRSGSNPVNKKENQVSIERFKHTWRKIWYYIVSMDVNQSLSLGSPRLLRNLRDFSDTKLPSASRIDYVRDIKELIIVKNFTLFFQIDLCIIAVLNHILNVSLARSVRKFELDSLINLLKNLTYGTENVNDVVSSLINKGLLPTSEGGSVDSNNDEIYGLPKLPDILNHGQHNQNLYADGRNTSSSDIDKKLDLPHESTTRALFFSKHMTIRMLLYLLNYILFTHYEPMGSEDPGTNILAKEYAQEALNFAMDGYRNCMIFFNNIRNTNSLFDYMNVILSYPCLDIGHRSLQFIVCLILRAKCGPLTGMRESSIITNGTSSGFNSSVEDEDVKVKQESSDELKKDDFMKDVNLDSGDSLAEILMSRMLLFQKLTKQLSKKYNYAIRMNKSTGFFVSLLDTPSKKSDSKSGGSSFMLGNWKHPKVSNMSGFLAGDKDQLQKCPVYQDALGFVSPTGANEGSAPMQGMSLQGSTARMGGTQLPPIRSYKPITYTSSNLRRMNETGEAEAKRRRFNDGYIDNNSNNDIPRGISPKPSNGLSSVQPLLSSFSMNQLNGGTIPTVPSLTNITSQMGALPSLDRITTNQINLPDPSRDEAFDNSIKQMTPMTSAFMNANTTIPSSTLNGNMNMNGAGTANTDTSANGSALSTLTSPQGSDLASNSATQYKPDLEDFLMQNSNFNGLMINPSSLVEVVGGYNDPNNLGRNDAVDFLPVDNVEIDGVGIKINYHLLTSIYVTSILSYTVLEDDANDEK

Row | Sequence | PBM E-score
1 | CGCGCCAA | 0.152
2 | TGAAGGAA | -0.247
3 | ACGGGTCG | 0.145
4 | ATATCACC | 0.186
5 | ATTTAATG | 0.112
6 | ACATTGGA | -0.0771
7 | ATGTAGCC | 0.00959
8 | ACGAAGCT | -0.198
9 | AGAGCCGC | 0.161
10 | AAGCAACG | 0.0189
11 | GAACCGCA | 0.124
12 | AACCTAGA | -0.0855
13 | ATGACTGA | -0.207
14 | CTAGTGGA | -0.196
15 | AATGCTAC | 0.126
16 | CGCATTCA | -0.0417
17 | GTCTCTTA | -0.0167
18 | AGAGGGCA | -0.162
19 | GCGCCCAC | -0.0322
20 | ACGAAACT | -0.11
21 | ATTCGTCC | 0.317
22 | ATATACGA | -0.196
23 | CGCAGCGC | 0.00748
24 | ATAGCGAC | -0.132

Row | Sequence | PBM E-score
25 | ACATGTCT | 0.0344
26 | AAAGTGAG | -0.231
27 | ATCAGGGA | -0.0649
28 | AAGTTGGC | -0.115
29 | ATGCTATG | -0.186
30 | GCTGTTCC | 0.0138
31 | ATCTAGTA | -0.221
32 | GTCCGTAA | 0.323
33 | CCGGAGAA | 0.428
34 | CGTGTGAC | -0.0698
35 | GCCATCCA | -0.133
36 | GCACTCGA | 0.0397
37 | CCTTGGCG | 0.0195
38 | CGAATAGA | -0.149
39 | ACTTATTA | -0.215
40 | ACCAGTTC | 0.0418
41 | CATAAGCG | 0.0361
42 | GAGCTTAA | 0.0224
43 | CTTCCACC | -0.00109
44 | CCGGTACG | 0.342
45 | AGGAGTAA | 0.0122
46 | AAAGGCTT | -0.073
47 | TGATAGAA | -0.207
48 | AATGTTGA | -0.0613

Row | Sequence | PBM E-score
49 | GATTCTTA | -0.0045
50 | AAGTGCTG | -0.129
51 | ACTCATTC | 0.14
52 | GTATATTA | -0.287
53 | CGCTATCC | 0.099
54 | AGGTCTAC | -0.18
55 | TCTCCAAA | -0.138
56 | AACAACCC | 0.103
57 | CTGTCCTA | -0.201
58 | GATTCGTA | 0.00463
59 | AATTCTGG | -0.289
60 | CATCGAAG | -0.0438
61 | ATTCGTGC | 0.0213
62 | ACTCTAAG | -0.113
63 | CGATTGCA | 0.0711
64 | ACTAGTCG | -0.0155
65 | CCCCTTAG | -0.0343
66 | AAGGGATC | 0.00434
67 | CGGAGATA | 0.495
68 | AGTCCAGA | -0.122
69 | AGGAGCTA | -0.192
70 | ATCCCGTA | 0.0391
71 | CAGCACCG | 0.253
72 | ACAAATAC | -0.0498

Row | Sequence | PBM E-score
73 | ATCGGGAC | 0.181
74 | CGTCTCCA | -0.014
75 | CCAGACAA | -0.05
76 | TACTACGA | -0.16
77 | TAACCCGA | 0.355
78 | TCCTCTAA | -0.26
79 | TAGGGTGA | -0.116
80 | CTACCCTA | -0.194
81 | CTGAAGAC | -0.0917
82 | CCGAGTAA | 0.245
83 | GGTCACAC | -0.179
84 | ACGACTTA | -0.283
85 | GACTGCAC | -0.225
86 | GTTTACAA | -0.057
87 | TCCGCCAA | 0.25
88 | CTCATTAC | -0.0367
89 | GGCATGCA | -0.229
90 | ACGGCCTC | -0.00159
91 | ACTTGCTG | -0.256
92 | AACCCTAC | -0.308
93 | ATGGACCC | 0.074
94 | ATTATACG | 0.108
